Assay results taken from PubChem BioAssay AID743449 (Broad Institute, 2014).
Screen size: about 9,900 compounds; about 90 (0.9%) were called active. This list was built around the results that the source calls inconclusive (neither active nor inactive); the mix of calls is not that of the screen.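 The calls were made as follows: active = mean normalized replicate activity at least 50 and at least half of replicates each reaching 50; inconclusive = only one of the two criteria met; inactive = neither criterion met.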

Experiment: reduction of CTGF mRNA in DLD1 cells – DLD1 colon cancer cells, RT-qPCR, single point, primary screen (AID 743449);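 also: 0% = neutral control wells and 100% = dasatinib control wells; higher means stronger suppression of CTGF expression like dasatinib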
Settings: 24 h, at 12.5 µM, stronger effect = higher value

With O=C(C[C@@H]1C=C[C@@H](NC(=O)c2ccncc2)[C@H](CO)O1)NCC1CC1 as the compound, how does the inhibition read?
Its inhibition is inactive: 15.8%.

With O=C(C[C@H]1CC[C@@H](NS(=O)(=O)c2ccc(F)cc2)[C@@H](CO)O1)N1CCN(c2ccccc2)CC1 as the compound, how does the inhibition read?
The inhibition was inconclusive: 29.6%.

With CCc1nc(N2[C@@H](C#N)[C@@H](c3ccccc3-c3ccc(F)cc3)[C@@H]2CO)sc1C as the compound, how does the inhibition read?
The inhibition was inactive: 10.1%.

With COc1ccccc1CN1[C@@H]2c3ccc(C4=CCCC4)c(=O)n3C[C@H]1[C@H](CO)[C@H]2C(=O)N(C)C as the compound, how does the inhibition read?
The inhibition was inactive: 2.56%.

With O=C(C[C@H]1C[C@@H]2c3cc(NS(=O)(=O)c4ccc(F)cc4)ccc3O[C@@H]2[C@H](CO)O1)NCc1cccnc1 as the compound, how does the inhibition read?
The inhibition was inconclusive: 26.4%.

For COc1cccc(C(=O)Nc2ccc3c(c2)C(=O)N(C)[C@H]2CC[C@H](CC(=O)NCc4ccc(F)cc4)O[C@H]2CO3)c1, which inhibition is on record?
Its inhibition is inconclusive: 42.1%.

For CN1C(=O)c2cc(NC(=O)c3cccc(F)c3)ccc2OC[C@@H]2O[C@@H](CC(=O)NCC3CCCCC3)CC[C@@H]21, which inhibition is on record?
Its inhibition is inconclusive: 24.1%.

For C[C@@H]1CN([C@@H](C)CO)C(=O)c2cc(NC(=O)Nc3cccc4ccccc34)ccc2O[C@@H](C)CCCCO[C@@H]1CN(C)Cc1ccc(C(F)(F)F)cc1, which inhibition is on record?
The inhibition was inactive: -20.9%.

For C[C@H]1CC=CC[C@@H](c2ccc(F)cc2)NC(=O)[C@H](Cc2ccccc2)N(C)C(=O)c2ccccc2O1 (mixture of isomers), which inhibition is on record?
Its inhibition is active: 64%.

Which inhibition does the source give for COc1cccc(NC(=O)C[C@@H]2CC[C@@H]3[C@H](COc4ccc(NS(=O)(=O)c5cccc(F)c5)cc4C(=O)N3C)O2)c1 here?
The inhibition was inactive: -76.5%.

Which inhibition does the source give for Cc1ccc(S(=O)(=O)N2CC[C@@H]3[C@H]2c2cc(-c4ccccc4F)ccc2N(C)[C@H]3CO)cc1 here?
The inhibition was inconclusive: 38.8%.

For CCC(=O)N1C[C@@H](C)[C@H](OC)CN(C)C(=O)c2cc(NC(=O)Nc3ccc(Cl)cc3)ccc2OC[C@H]1C, which inhibition is on record?
Its inhibition is inconclusive: 37.9%.

For COc1ccc2c3c(n(C)c2c1)[C@@H](CO)N(C(=O)Nc1ccc(F)cc1)CC31CN(S(=O)(=O)c2cn(C)cn2)C1, which inhibition is on record?
Its inhibition is inconclusive: 36.5%.

For N#C[C@H]1[C@@H](c2ccccc2-c2cccc(F)c2)[C@@H](CO)N1C(=O)NC1CCCCC1, which inhibition is on record?
The inhibition was inconclusive: 38.7%.

For C[C@@H]1CN([C@H](C)CO)C(=O)Cc2cc(NS(=O)(=O)c3cccs3)ccc2O[C@@H]1CN(C)CC1CCCCC1, which inhibition is on record?
The inhibition was inactive: 1.75%.

Which inhibition does the source give for C[C@H](CO)N1C[C@H](C)[C@@H](CN(C)C(=O)c2ccccc2)Oc2cc(-c3cccc(C#N)c3)ccc2S1(=O)=O here?
Its inhibition is inconclusive: 32.5%.

For CNC(=O)C[C@H]1CC[C@H]2[C@H](COc3ccc(NC(=O)c4ccccc4F)cc3C(=O)N2C)O1, which inhibition is on record?
The inhibition was inconclusive: 31.2%.

For CO[C@H]1CN(C)C(=O)c2cccc(C#N)c2OCC[C@H]2CC[C@@H](OC)[C@H](CN(C)C(=O)[C@H]1C)O2, which inhibition is on record?
The inhibition was inconclusive: 22.7%.

Which inhibition does the source give for COc1ccc2c3c([nH]c2c1)[C@H](CO)NCC31CCN(C(=O)Cc2cccnc2)CC1 here?
Its inhibition is active: 51%.

Which inhibition does the source give for C[C@H](CO)N1C[C@H](C)[C@@H](CN(C)C(=O)c2ccccc2)Oc2ncc(C#Cc3ccccc3)cc2C1=O here?
The inhibition was inconclusive: 42.4%.

With COc1ccc(S(=O)(=O)N(C)C[C@@H]2Oc3c(NC(=O)c4nc5ccccc5s4)cccc3C(=O)N([C@@H](C)CO)C[C@@H]2C)cc1 as the compound, how does the inhibition read?
Its inhibition is inactive: 34.9%.

For O=C(C[C@H]1C=C[C@@H](NC(=O)Nc2ccccc2F)[C@@H](CO)O1)NCc1ccc(-c2ccccc2)cc1, which inhibition is on record?
Its inhibition is inconclusive: 39.6%.

For Cn1cnc(S(=O)(=O)N[C@@H]2CC[C@H](CC(=O)NCC3CCCCC3)O[C@H]2CO)c1, which inhibition is on record?
Its inhibition is inactive: -20.2%.

With C[C@@H]1CN([C@H](C)CO)C(=O)CCCn2nncc2CO[C@H]1CN(C)S(=O)(=O)c1ccccc1C#N as the compound, how does the inhibition read?
Its inhibition is inconclusive: 28%.

With CO[C@@H](CN(C)S(=O)(=O)c1ccc(C)cc1)[C@@H](C)CN([C@H](C)CO)S(=O)(=O)c1cccc(Cl)c1 as the compound, how does the inhibition read?
Its inhibition is active: 74.7%.

Which inhibition does the source give for C[C@@H]1CN([C@H](C)CO)C(=O)c2cccc(NC(=O)Nc3ccc(C(F)(F)F)cc3)c2O[C@@H]1CN(C)S(=O)(=O)c1cn(C)cn1 here?
Its inhibition is inconclusive: 25%.

For C/C=C/c1ccc([C@H]2[C@H](CO)N(C(C)=O)[C@H]2CNC(=O)c2ccccc2)cc1, which inhibition is on record?
The inhibition was inconclusive: 43.1%.

With C[C@@H]1CN([C@@H](C)CO)C(=O)CCCn2nncc2CO[C@@H]1CN(C)C(=O)Nc1cccc(Oc2ccccn2)c1 as the compound, how does the inhibition read?
Its inhibition is inconclusive: 36.2%.

Which inhibition does the source give for Cc1noc(C)c1S(=O)(=O)N(C)C[C@@H]1OCc2ccccc2-c2c(n(C)c3ccccc23)C(=O)N([C@H](C)CO)C[C@H]1C here?
Its inhibition is inconclusive: 43.5%.

For O=C(Cc1cccnc1)N1[C@H](CNCC2CCC2)[C@H](c2ccccc2)[C@@H]1CO, which inhibition is on record?
Its inhibition is inactive: -21.2%.

Which inhibition does the source give for C/C=C/c1ccc([C@H]2[C@@H](CNC(=O)CC3CC3)N(C(=O)CC)[C@H]2CO)cc1 here?
Its inhibition is inactive: -13.1%.

With COc1ccc2c3c(n(C)c2c1)[C@H](CO)NCC31CCN(C(=O)Nc2ccc3c(c2)OCO3)CC1 as the compound, how does the inhibition read?
Its inhibition is inconclusive: 46.4%.

With CC(C)NC(=O)N[C@@H]1CC[C@H](CC(=O)NCCCN(C)C)O[C@@H]1CO as the compound, how does the inhibition read?
The inhibition was active: 50.2%.

With N#Cc1cccc(-c2ccc3c(c2)[C@H]2[C@H](CCN2S(=O)(=O)c2ccc(F)cc2)[C@H](CO)N3)c1 as the compound, how does the inhibition read?
Its inhibition is inactive: 20.1%.

With O=S(=O)(c1ccccc1)N1CCCCN2[C@H](C1)[C@H](c1ccc(C#CC3CCCC3)cc1)[C@@H]2CO as the compound, how does the inhibition read?
Its inhibition is inconclusive: 27.2%.

For N#C[C@H]1[C@@H](c2ccccc2)[C@H](CO)N1C(=O)c1cc(Cl)cc(Cl)c1, which inhibition is on record?
Its inhibition is inactive: 26.8%.

For C[C@@H]1CC=CC[C@@H](c2cccc(Cl)c2)NC(=O)[C@@H](Cc2ccccc2)N(C)C(=O)c2ccccc2O1 (mixture of isomers), which inhibition is on record?
The inhibition was active: 67.5%.

With CC(C)(C)[S@@](=O)N1Cc2cc(C(=O)NCC(F)(F)F)nc(-c3cccc(-c4cccc(F)c4)c3)c2[C@H]1CCO as the compound, how does the inhibition read?
The inhibition was inconclusive: 49.1%.

With O=S(=O)(Cc1ccccc1)N1CC2(C1)[C@H](c1ccccc1)[C@H](CO)N2CC1CCCC1 as the compound, how does the inhibition read?
The inhibition was active: 63.5%.

Which inhibition does the source give for Cc1noc(C)c1NC(=O)Nc1ccc2c(c1)C(=O)N(C)[C@@H]1CC[C@H](CC(=O)N[C@@H]3CCN(Cc4ccccc4)C3)O[C@@H]1CO2 here?
Its inhibition is inconclusive: 22.8%.

With CCS(=O)(=O)N[C@@H]1CC[C@@H](CC(=O)N2CCCCC2)O[C@@H]1CO as the compound, how does the inhibition read?
Its inhibition is inconclusive: 26.9%.

Which inhibition does the source give for Cc1noc(C)c1NC(=O)N(C)C[C@@H]1OCc2ccccc2-c2c(n(C)c3ccccc23)C(=O)N([C@H](C)CO)C[C@@H]1C here?
Its inhibition is inactive: -14.8%.

With COc1ccc([C@H]2C/C=C\C[C@H](c3ccc(F)cc3)NC(=O)CCC(=O)N2)c(OC)c1 as the compound, how does the inhibition read?
The inhibition was inconclusive: 35.1%.

With Cc1cc(C(=O)Nc2ccc3c(c2)C(=O)N(C)[C@@H]2CC[C@@H](CC(=O)NCc4ccc(-c5ccccc5)cc4)O[C@@H]2CO3)no1 as the compound, how does the inhibition read?
Its inhibition is inconclusive: 35.6%.

For COc1ccc2c3c(n(C)c2c1)[C@@H](CO)N(C(=O)C1CCOCC1)CC31CN(C(=O)Nc2cccc(F)c2)C1, which inhibition is on record?
The inhibition was inconclusive: 43.5%.

With COc1ccc2c3c([nH]c2c1)[C@@H](CO)N(C(=O)NC(C)C)CC31CCN(C(=O)c2cnccn2)CC1 as the compound, how does the inhibition read?
Its inhibition is inconclusive: 9.71%.

Which inhibition does the source give for COCC(=O)N1CC[C@@H]2[C@H]1c1cc(-c3cccc(F)c3)ccc1N(C)[C@H]2CO here?
The inhibition was inconclusive: 45%.

With O=C(NC1CCC1)[C@@H]1[C@@H](CO)[C@@H]2Cn3c(ccc(-c4ccncc4)c3=O)[C@H]1N2Cc1cocn1 as the compound, how does the inhibition read?
The inhibition was inconclusive: 15.3%.

For COCC(=O)N1CC(=O)N2[C@H](CO)[C@@H](c3ccc(C#CC4CC4)cc3)[C@H]2C1, which inhibition is on record?
The inhibition was active: 62.3%.

For CCCNC(=O)N1CC2(C1)[C@@H](c1ccccc1)[C@@H](CO)N2CC1CCOCC1, which inhibition is on record?
The inhibition was inconclusive: 40.5%.

Which inhibition does the source give for COc1ccc2c3c(n(C)c2c1)[C@H](CO)N(C(=O)Nc1ccc(F)cc1)CC31CCN(C(=O)c2ccc3c(c2)OCO3)CC1 here?
Its inhibition is inconclusive: 41.7%.

With COc1ccc2c3c(n(C)c2c1)[C@@H](CO)N(Cc1ccncc1)CC31CN(C(=O)Nc2cccc(F)c2)C1 as the compound, how does the inhibition read?
The inhibition was active: 52.9%.

For C[C@H]1CC=CC[C@H](c2cccc(Cl)c2)NC(=O)[C@@H](Cc2ccccc2)N(C)C(=O)c2ccccc2O1 (mixture of isomers), which inhibition is on record?
Its inhibition is inactive: -83.3%.

For CO[C@H](CN(C)Cc1nccs1)[C@H](C)CN([C@H](C)CO)S(=O)(=O)c1ccc(F)cc1, which inhibition is on record?
Its inhibition is inconclusive: 11.9%.

Which inhibition does the source give for COCC(=O)N1[C@H](CO)[C@@H](c2ccccc2)C12CN(C(=O)c1ccccc1)C2 here?
Its inhibition is inactive: -0.941%.

For CO[C@H]1CC[C@H]2CCOc3c(C#N)cccc3C(=O)N(C)C[C@@H](OC)[C@@H](C)C(=O)N(C)C[C@H]1O2, which inhibition is on record?
The inhibition was inactive: -18.4%.

For C[C@H](NC(=O)C[C@H]1C=C[C@@H](NC(=O)c2cccnc2)[C@@H](CO)O1)c1ccccc1, which inhibition is on record?
The inhibition was inconclusive: 11.7%.

For C[C@H]1CN([C@@H](C)CO)C(=O)CCCn2cc(nn2)CO[C@@H]1CN(C)C(=O)Nc1cccc2ccccc12, which inhibition is on record?
Its inhibition is inconclusive: 33.9%.

For COc1cccc(S(=O)(=O)N2CCCCN3[C@H](CO)[C@@H](c4ccc(C#CCC(C)C)cc4)[C@@H]3C2)c1, which inhibition is on record?
The inhibition was inconclusive: 38.6%.

With CCCNC(=O)N(C)C[C@H]1[C@H](c2ccccc2)[C@@H](CO)N1C(=O)c1ccccc1 as the compound, how does the inhibition read?
The inhibition was inactive: 13.1%.

With CCC(=O)N1Cc2cc(C(=O)NCc3cccc(F)c3)nc(-c3cccc(C4=CCCC4)c3)c2[C@H]1CCO as the compound, how does the inhibition read?
The inhibition was active: 50.2%.
